In the supplement of paper PMC12217912:
The other results are listed elsewhere or left out. Sequences were assembled here from the parent chain. Inactive controls read about 0.05.

B1: TEV protease; numbered along this chain (parent)
chain: MGESLFKGPRDYNPISSSICHLTNESDGHTTSLYGIGFGPFIITNKHLFRRNNGTLVVQSLHGVFKVKDTTTLQQHLVDGRDMIIIRMPKDFPPFPQKLKFREPQREERICLVTTNFQTKSMSSMVSDTSCTFPSGDGIFWKHWIQTKDGQCGSPLVSTRDGFIVGIHSASNFTNTNNYFTSVPKNFMELLTNQEAQQWVSGWRLNADSVLWGGHKVFMVKPEEPFQPVKEATQL

Variants of: B1
Test: raw area under fraction-flipped curve 0-4 h after induction (AUC4h, not background-subtracted), DNA-recorder readout of cleavage of the substrate (dimensionless); higher = more cleavage of the substrate by the protease variant
Conditions: temperature: 34 °C; time window: 0-4 h after rhamnose induction
Protocol: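 In vivo DNA recorder in E. coli TOP10(DE3) ΔrhaA at 34 °C. Each TEVp single-site mutant (parent TEVp 0) is paired with a single-site variant of the 7-mer TEVs (canonical ENLYFQ|S). The substrate sits between flexible linkers in a Bxb1-sfGFP-TEVs-SsrA fusion, so cleavage stabilises Bxb1 and speeds flipping of a recombination array, read by NGS. The value is the raw area under the fraction-flipped curve over 0-4 h after rhamnose induction (AUC4h), with ≥20 reads per time point. It is not background-subtracted; inactive controls average about 0.047.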
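Also: Bxb1 expression induced with 0.2% (w/v) L-rhamnose at OD600 near 0.5, cultures sampled hourly, flipped fraction per protease–substrate barcode pair counted by paired-end Illumina sequencing.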

| Variant | area with substrate ENAYFQS | area with substrate ENCYFQS | area with substrate ENDYFQS | area with substrate ENEYFQS | area with substrate ENGYFQS | area with substrate ENIYFQS | area with substrate ENKYFQS | area with substrate ENQYFQS | area with substrate ENSYFQS | area with substrate ENVYFQS | area with substrate ENYYFQS | area with substrate ENMYFQS | area with substrate ENNYFQS | area with substrate ENRYFQS | area with substrate ENTYFQS | area with substrate ENFYFQS | area with substrate ENHYFQS | area with substrate ENPYFQS | area with substrate ENWYFQS |
| --- | --- | --- | --- | --- | --- | --- | --- | --- | --- | --- | --- | --- | --- | --- | --- | --- | --- | --- | --- |
| G37C | 0.0555 | 0.0663 | 0.0677 | 0.0803 | 0.0543 | 0.124 | 0.0547 | 0.0704 | 0.0418 | 0.0886 | 0.0591 | – | – | – | – | – | – | – | – |
| N177T | 0.0763 | – | 0.0538 | 0.063 | – | – | – | 0.0589 | 0.0705 | 0.102 | 0.0501 | 0.0887 | 0.0559 | 0.0574 | 0.0629 | – | – | – | – |
| N177G | 0.0405 | 0.101 | – | 0.0512 | – | 0.0738 | 0.0667 | 0.0446 | 0.0632 | 0.0561 | – | – | – | – | – | 0.0535 | – | – | – |
| T115R | 0.0683 | – | 0.0539 | 0.0546 | 0.0642 | – | – | 0.0482 | 0.0488 | 0.083 | – | – | – | – | – | – | 0.059 | 0.0666 | – |
| W141F | 0.0682 | – | 0.0668 | 0.0639 | 0.0546 | – | 0.0341 | 0.0608 | – | – | 0.055 | – | 0.0333 | 0.0296 | – | – | 0.0668 | 0.0467 | 0.0697 |
| I110F | 0.0503 | 0.0538 | 0.0575 | 0.0567 | 0.0469 | 0.0515 | 0.0559 | 0.0467 | 0.0616 | 0.0587 | 0.064 | – | – | 0.051 | 0.0547 | 0.0524 | 0.0572 | 0.0364 | 0.0372 |
| V58G | 0.0428 | – | 0.0421 | – | 0.0554 | 0.0683 | – | – | – | – | 0.0513 | – | – | – | – | – | – | – | – |
| G28Y | 0.0723 | 0.0564 | 0.0546 | 0.06 | 0.0478 | 0.0816 | 0.0503 | 0.0652 | 0.0704 | 0.0629 | – | – | 0.0608 | 0.048 | – | – | 0.0584 | 0.0726 | – |
| N175Q | 0.0623 | 0.0596 | 0.0792 | – | – | 0.114 | – | 0.0395 | 0.0532 | – | – | – | – | 0.0733 | 0.046 | – | – | 0.0614 | – |
| S182H | 0.0512 | – | – | 0.0569 | 0.0515 | – | – | 0.0547 | 0.0707 | 0.0569 | 0.0619 | – | 0.0548 | – | – | – | 0.0547 | – | 0.0485 |
| S182C | 0.0611 | – | – | – | – | 0.109 | – | – | 0.0702 | – | 0.0633 | – | – | – | – | – | – | – | 0.0544 |
| F187A | 0.0589 | 0.0564 | 0.0568 | 0.0576 | 0.0519 | 0.0847 | – | 0.0519 | 0.0642 | – | 0.0511 | 0.0571 | 0.0507 | 0.0515 | 0.067 | – | – | 0.0586 | – |
| F65P | 0.0433 | 0.0431 | – | 0.0458 | 0.0588 | 0.045 | – | 0.0505 | 0.0374 | 0.0347 | 0.037 | 0.0709 | 0.0575 | 0.0464 | – | – | 0.049 | 0.0417 | 0.0242 |
| N178M | 0.104 | 0.111 | – | 0.0515 | – | – | – | 0.0686 | – | – | – | – | 0.0533 | – | 0.0341 | 0.0873 | 0.0443 | 0.0499 | – |
| S171I | 0.064 | – | – | – | – | 0.0565 | – | 0.0416 | 0.0544 | – | – | – | – | 0.0712 | – | 0.0593 | – | – | – |
| E195L | 0.0588 | – | – | 0.0475 | 0.0545 | – | – | – | 0.0453 | – | – | – | – | – | – | – | 0.0553 | – | – |
| V210E | 0.0498 | – | – | – | – | – | 0.0587 | 0.0547 | 0.0675 | 0.0542 | – | 0.0613 | – | 0.0553 | 0.0462 | – | – | – | – |
